# Measured values as given in paper PMC4336329 (PLoS ONE, 2015).
# Hit rate of the full screen: of about 310,000 compounds, about 2,200 (0.71%) showed an effect of 50% or more. The effect is printed as a negative number. The list shows a part of the results.
# Target: human ether-à-go-go-related gene (hERG) potassium channel (human, UniProt Q12809)
# Test: primary screen, population patch clamp on CHO cells stably expressing hERG
# Sequence of human ether-à-go-go-related gene (hERG) potassium channel (Q12809 whole entry, looked up): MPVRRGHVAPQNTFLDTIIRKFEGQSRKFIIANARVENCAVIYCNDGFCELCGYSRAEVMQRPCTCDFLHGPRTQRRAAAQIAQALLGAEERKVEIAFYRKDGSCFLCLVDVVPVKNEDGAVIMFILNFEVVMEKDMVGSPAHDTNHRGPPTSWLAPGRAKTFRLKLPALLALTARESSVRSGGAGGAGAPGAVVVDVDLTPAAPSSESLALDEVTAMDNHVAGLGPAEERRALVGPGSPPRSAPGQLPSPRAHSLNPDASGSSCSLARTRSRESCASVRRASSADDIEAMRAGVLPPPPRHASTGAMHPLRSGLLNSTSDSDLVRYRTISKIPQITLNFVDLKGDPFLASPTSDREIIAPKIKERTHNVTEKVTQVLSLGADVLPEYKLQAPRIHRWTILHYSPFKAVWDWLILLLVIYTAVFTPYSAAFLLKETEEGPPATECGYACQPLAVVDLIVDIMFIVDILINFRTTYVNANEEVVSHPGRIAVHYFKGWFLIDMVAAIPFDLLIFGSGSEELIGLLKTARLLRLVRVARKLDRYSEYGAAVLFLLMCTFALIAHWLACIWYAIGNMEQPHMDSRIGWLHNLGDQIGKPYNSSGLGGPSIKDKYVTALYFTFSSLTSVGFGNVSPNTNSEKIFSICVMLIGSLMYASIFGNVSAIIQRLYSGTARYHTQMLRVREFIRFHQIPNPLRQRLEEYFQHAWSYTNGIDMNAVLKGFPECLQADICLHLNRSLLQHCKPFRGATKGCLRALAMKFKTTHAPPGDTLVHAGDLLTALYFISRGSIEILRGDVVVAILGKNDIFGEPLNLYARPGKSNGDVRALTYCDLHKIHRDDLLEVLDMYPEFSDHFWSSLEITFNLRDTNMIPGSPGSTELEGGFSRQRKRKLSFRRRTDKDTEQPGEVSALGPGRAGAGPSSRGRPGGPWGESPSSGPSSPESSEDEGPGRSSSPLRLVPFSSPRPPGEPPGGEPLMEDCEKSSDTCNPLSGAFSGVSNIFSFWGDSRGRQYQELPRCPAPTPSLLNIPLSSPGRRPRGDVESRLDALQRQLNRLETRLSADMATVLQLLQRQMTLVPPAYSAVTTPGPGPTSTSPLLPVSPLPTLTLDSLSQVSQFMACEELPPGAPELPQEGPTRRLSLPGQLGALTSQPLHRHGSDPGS
row,Compound,"hERG current change (%, negative = inhibition) at 1uM [%]"
1,CCOC(=O)C1CC=C(Cl)CC1C(=O)Nc1nccs1 (centres unmarked),13.3
2,COc1cc(OCc2ccccc2)c(C(=O)/C=C/c2ccc3c(c2)OCO3)c(OC)c1OC,8.05
3,Cc1ccc(N=C2NC(=O)/C(=C/c3cccs3)S2)cc1C,9.94
4,CCCCn1c(N)c(N(CCOC)C(=O)C2CCN(S(=O)(=O)c3ccc(Cl)cc3)CC2)c(=O)[nH]c1=O,17.3
5,COc1ccc(C2CC(=O)Oc3c(C(CCN4CCN(c5ccccc5)CC4)c4ccc(N(C)C)cc4)c(OC)cc(OC)c32)cc1 (centres unmarked),16.6
6,O=S(=O)(Nc1cccc(-c2ccc(N3CCCCCC3)nn2)c1)c1ccccc1F,7.16
7,CCCOC(=O)C1C2C=CC(C2)C1C(=O)OCC(=O)c1ccccc1 (centres unmarked),-3.56
8,O=C(C/C=N/OCc1ccc(Cl)cc1Cl)c1ccccc1,-3.92
9,O=c1nc2ccccc2c2n1CC(CN1CCN(Cc3ccccc3)CC1)N2 (centres unmarked),-34.9
10,CC(C)(C)C(=O)C[n+]1ccc(C(N)=O)cc1.[Br-],8.03
11,CCCCn1c(N)c(N(CCOC)C(=O)c2ccc(-n3c(C)ccc3C)cc2)c(=O)[nH]c1=O,11.1
12,C=CCn1c(SCC(=O)N2CCN(c3ccccc3)CC2)nnc1-c1ccco1,4.57
13,Cc1ccc(S(=O)(=O)c2nc(S(C)(=O)=O)sc2N2CCC(O)CC2)cc1,12.9
14,COc1ccc(N2CC(=O)N(c3ccccc3)C2=S)cc1,4.34
15,CC(C)NC(=O)CN(Cc1ccc(F)cc1)C(=O)CCC(=O)Nc1nccs1,17.3
16,CC1(NC(=S)Nc2ccccc2)CCS(=O)(=O)C1 (centres unmarked),13.1
17,O=C(N=C1SC2CS(=O)(=O)CC2N1c1ccc(Cl)cc1Cl)C1CCCO1 (centres unmarked),1.53
18,CCN=C(Nc1cccc(F)c1)SC1CC(=O)N(c2ccc(OC)cc2)C1=O (centres unmarked),11.8
19,COc1cc(NC(=O)CSc2nnc3n2C(C)(C)Cc2ccccc2-3)cc(OC)c1,11.8
20,CCS(=O)(=O)c1ccc(-c2cccc(NC(=O)c3ccco3)c2)nn1,6.44
21,CCn1c(SCC(=O)Nc2oc(C)c3c(C)n[nH]c(=O)c23)nc2sc(C)c(C)c2c1=O,3.98
22,COC(=O)c1ccccc1NC(=O)COC(C)=O,9.05
23,CCC(C)(C(=O)NC1CCCCC1)N(C)C(=O)c1ccccn1 (centres unmarked),4.4

row,Compound,"hERG current change (%, negative = inhibition) at 1uM [%]"
1,COC(=O)c1ccc(/C=C/c2c(-c3ccsc3)oc3ccc(N4CCOCC4)cc23)cc1,13.4
2,O=C(COc1ccccc1)NNc1c2ccccc2nc2ccccc12,4.4
3,O=C1NNC(c2ccccc2)=N/C1=C\c1ccc(Cl)cc1,10.4
4,O=C(NNC(=O)c1cccs1)c1cccc(F)c1,8.52
5,Cl.NC12CC3CC(CC(C3)C1)C2,13.1
6,C[C@H](NC(=O)C1CCN(S(=O)(=O)c2ccccc2)CC1)C(=O)NCc1cccc(C(F)(F)F)c1,15.2
7,Cc1ccccc1C(=O)N=c1ccn(-c2nc3ccccc3nc2NS(=O)(=O)c2ccc(F)cc2)cc1,19.2
8,Cc1[nH]n(-c2cccc(Cl)c2)c(=O)c1C=NCC(C)C,0.286
9,O=C(COc1ccc(S(=O)(=O)N2CCOCC2)cc1Cl)NCCCn1ccnc1,8.91
10,CCS(=O)(=O)c1c(S(=O)(=O)CC)c2ccccn2c1C(N)=O,-9.01
11,c1coc(C2Nc3cccc4cccc(c34)N2)c1,11.3
12,COc1ccccc1NS(=O)(=O)c1cccc(C(=O)NNC(=O)c2ccc(O)c(Cl)c2)c1,8.8
13,Cc1cccc(Cl)c1NC(=O)N1CCCN(c2ncccc2[N+](=O)[O-])CC1,5.84
14,COc1ccc(CNC2CC(C)N(C)CC2C)cc1OC.Cl (centres unmarked),14.1
15,O=C(Nc1ccncc1)Nc1ccc(Cl)cc1Cl,17.4
16,O=C(NCc1ccc(F)cc1)C(=O)NCC1OCCN1C(=O)c1ccc(Cl)cc1 (centres unmarked),-9.59
17,Cc1ccc(NC(=S)Nc2ncccc2C)c(C)c1,13.3
18,CSc1cccc(NC(=O)c2ccco2)c1,4.34
19,COc1ccc(OC)c(NC(=O)CSc2nnc(CCCO)n2-c2ccccc2)c1,-13.6
20,O=C(O)CC(CC(=O)N1CCOCC1)c1ccccc1 (centres unmarked),9.08
21,CCCc1nn(C)c(C(=O)Nc2cccc(Cl)c2)c1Cl,4.33
22,COc1ccc(NC(=O)CN2C(=O)COc3ccc(S(=O)(=O)N4CCCCC4)cc32)cc1OC,14.4
23,O=C(COC(=O)Cc1cccc2ccccc12)Nc1ccccc1-c1ccccc1,8.5

row,Compound,"hERG current change (%, negative = inhibition) at 1uM [%]"
1,Clc1ccc2oc(-c3ccccc3)nc2c1,10.9
2,CC(=O)NCCN1C(=O)S/C(=C\c2cccs2)C1=O,4.24
3,CCC(=O)Nc1nnc(SCC(=O)Nc2cccc(Cl)c2)s1,-0.827
4,CCOC(=O)CC(=O)Nc1nnc(C(C)C)s1,14.7
5,O=C(CCC(=O)OCC(=O)c1ccc([N+](=O)[O-])cc1)Nc1ccccc1Cl,5.57
6,O=C(Nc1ccccc1F)C1CCCN(S(=O)(=O)c2ccccc2)C1 (centres unmarked),3.79
7,Cc1nc2cccnc2nc1C,4.49
8,COc1ccc(-c2sc(Nc3ccccc3)n[n+]2-c2ccccc2)cc1Br.[Cl-],0.93
9,CCOCCn1ccc2c(OCC(=O)Nc3ccc(OC)cc3OC)cccc2c1=O,4.73
10,NC(=S)NN=C1c2cc(OCCN3CCOCC3)ccc2-c2ccc(OCCN3CCOCC3)cc21,5.35
11,O=C(COC(=O)c1ccccn1)NCc1ccc(Cl)cc1Cl,7.97
12,Cc1cccc(-c2noc(CCCC(=O)NC3CCCCC3)n2)c1,13
13,CC(=O)Nc1ccc(C=C(C(C)=O)C(C)=O)cc1,8.31
14,Cc1c(CC(=O)N2CCN(C(=O)C3COc4ccccc4O3)CC2)c(=O)oc2cc(O)cc(O)c12 (centres unmarked),22.6
15,CCOc1ccc(N(CC(=O)NCc2ccco2)C(=O)CCC(=O)Nc2nccs2)cc1,2.24
16,CC(C)c1ccc(NC(=O)Cn2nnc(C(=O)NCc3ccc4c(c3)OCO4)c2N)cc1,12.7
17,Cc1cc(NC(=O)Cc2cccs2)nn1CC(=O)NCc1ccco1,10.3
18,Cc1ccnc(NC(=O)c2ccccc2NC(=O)C(C)(C)C)c1,2.69
19,NS(=O)(=O)c1ccc(CNC(=O)c2cccnc2Cl)cc1,7.64
20,Cc1ccc(S(=O)(=O)N(C)C)cc1NC(=O)Nc1ccccc1F,12.4
21,O=C(O)c1cc(-c2ccco2)nc2cc3ccccc3cc12,15.5
22,c1ccc(CN2CCN(C(c3ccccc3)c3nnnn3Cc3ccccc3)CC2)cc1 (centres unmarked),0.303
23,CCCCn1nc(NC(=O)c2cccs2)c2cc3ccccc3nc21,10.5

row,Compound,"hERG current change (%, negative = inhibition) at 1uM [%]"
1,CC(=O)NC1C(=O)N=C(SCC(=O)NC(C)c2ccccc2)NC1=O (centres unmarked),18.8
2,CCc1ccc(CNC(=O)c2ccc(OC3CCN(C(C)=O)CC3)c(OC)c2)nc1,16.5
3,COC(=O)c1c(NC(=O)C2Cc3ccccc3C(=O)O2)sc2c1CCCC2 (centres unmarked),15.4
4,CN(C)c1ccnc2sc(C(N)=O)c(N)c12,8.93
5,Cc1cnc(C(=O)OCC(=O)Nc2c(Cl)cc(Cl)cc2Cl)cn1,15.4
6,COc1cccc(OC)c1C(=O)Nc1ccc2nc(C)c(C)nc2c1,0.445
7,COc1ccc(NC(=O)CCS(=O)(=O)c2ccc(OC)cc2)cc1,6.18
8,O=C(COc1ccc(F)cc1)Nc1nc(-c2ccccn2)cs1,7.08
9,CCOC(=O)CNC(=O)N1CCCC(CCC(=O)NCc2ccc(F)c(F)c2)C1 (centres unmarked),13.9
10,COc1ccccc1N1CCN(C2CCCN(C(=O)c3ccnc4ccc(C)cc34)C2)CC1 (centres unmarked),-2.36
11,COc1ccccc1OCC(=O)NCCCN1CCOCC1,13.3
12,COc1ccccc1OCCCCNCCO,9.29
13,O=C(CC1OC(=O)c2ccccc21)Nc1ccccc1N1CCOCC1 (centres unmarked),-1.46
14,CC(C)Cn1cc(C(=O)NCC2CCCO2)c2c3ccccc3n(C)c2c1=O (centres unmarked),0.636
15,COc1ccccc1N(CC(O)Cn1c2ccccc2c2ccccc21)S(=O)(=O)c1ccccc1 (centres unmarked),4.52
16,COc1ccc(-n2c(=O)c3c(C)c(C)sc3n(Cc3cccc(F)c3)c2=O)c(OC)c1,16.3
17,CC1CCCN(Cc2nc(Cc3ccccc3Cl)no2)C1 (centres unmarked),12.7
18,CC12CC3(C)CC(C)(C1)CC(C(=O)NC1=NCCS1)(C2)C3,-3.49
19,COc1ccccc1C(=O)C1CCCN(C(=O)c2ccccn2)C1 (centres unmarked),15.4
20,COc1ccc(C2C(C#N)=C(C)NC3=C2S(=O)(=O)c2ccccc23)cc1 (centres unmarked),-2.41
